Assay results as given in publication PMC7454948.
Results are given in words; binding and its absence hold for the method and conditions named. In cells and extracts the contact can be indirect. Some entries that bind do so weakly or less than the wild type. Tags and fused reporters may be left off the sequences shown.

T1: GST-Sgo1 101–200 (S. cerevisiae) (UniProt Q08490)
T1 sequence: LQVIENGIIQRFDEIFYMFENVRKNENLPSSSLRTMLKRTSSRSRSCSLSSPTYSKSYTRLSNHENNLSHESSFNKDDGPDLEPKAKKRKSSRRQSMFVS

T2: GST-Sgo1 137–163 (S. cerevisiae)
T2 sequence: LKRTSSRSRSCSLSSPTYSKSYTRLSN

T3: GST-Sgo1 1–163 (S. cerevisiae) (UniProt Q08490)
T3 sequence: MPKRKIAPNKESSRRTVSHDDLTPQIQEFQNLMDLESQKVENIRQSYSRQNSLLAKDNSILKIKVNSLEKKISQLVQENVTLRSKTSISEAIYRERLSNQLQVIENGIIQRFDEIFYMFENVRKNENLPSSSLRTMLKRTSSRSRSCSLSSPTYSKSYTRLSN

T4: GST-Sgo1 N51I (S. cerevisiae) (UniProt Q08490)
T4 sequence: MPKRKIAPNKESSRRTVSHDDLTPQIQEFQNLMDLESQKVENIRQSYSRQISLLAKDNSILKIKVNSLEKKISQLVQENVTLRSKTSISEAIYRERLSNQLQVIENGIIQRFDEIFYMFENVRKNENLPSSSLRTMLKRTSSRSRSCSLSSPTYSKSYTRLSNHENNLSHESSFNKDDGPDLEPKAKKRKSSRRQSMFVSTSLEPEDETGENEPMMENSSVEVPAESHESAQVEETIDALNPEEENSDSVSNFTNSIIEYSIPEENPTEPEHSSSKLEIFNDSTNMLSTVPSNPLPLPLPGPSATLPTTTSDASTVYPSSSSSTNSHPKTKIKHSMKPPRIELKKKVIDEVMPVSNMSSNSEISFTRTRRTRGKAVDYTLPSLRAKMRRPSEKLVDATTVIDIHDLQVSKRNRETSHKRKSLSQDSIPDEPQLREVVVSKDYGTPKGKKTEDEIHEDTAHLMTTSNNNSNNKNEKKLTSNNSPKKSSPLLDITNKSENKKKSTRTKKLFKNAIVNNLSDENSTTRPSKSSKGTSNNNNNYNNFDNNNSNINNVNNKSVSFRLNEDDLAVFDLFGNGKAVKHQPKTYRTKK

T5: GST-Sgo1wt (full length Sgo1-GST) (S. cerevisiae) (UniProt Q08490)
T5 sequence: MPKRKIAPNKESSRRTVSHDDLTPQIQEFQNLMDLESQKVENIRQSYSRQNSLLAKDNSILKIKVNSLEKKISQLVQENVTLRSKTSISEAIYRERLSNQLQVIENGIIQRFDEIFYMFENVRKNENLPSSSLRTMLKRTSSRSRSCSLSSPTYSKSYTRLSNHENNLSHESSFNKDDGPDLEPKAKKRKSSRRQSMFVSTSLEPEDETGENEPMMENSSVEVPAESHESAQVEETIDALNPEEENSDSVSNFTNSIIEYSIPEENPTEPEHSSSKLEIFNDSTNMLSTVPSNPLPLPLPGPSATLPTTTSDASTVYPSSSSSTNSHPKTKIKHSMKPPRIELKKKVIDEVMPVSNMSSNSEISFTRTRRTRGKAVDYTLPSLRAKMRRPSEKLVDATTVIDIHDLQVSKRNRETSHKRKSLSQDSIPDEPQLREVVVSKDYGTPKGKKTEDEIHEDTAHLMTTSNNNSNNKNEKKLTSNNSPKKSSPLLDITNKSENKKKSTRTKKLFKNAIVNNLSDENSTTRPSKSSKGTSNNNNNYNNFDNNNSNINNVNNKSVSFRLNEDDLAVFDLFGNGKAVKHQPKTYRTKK

T6: Smc2-TEV-HaloTag-TwinStrep (S. cerevisiae) (UniProt P38989)
T6 sequence: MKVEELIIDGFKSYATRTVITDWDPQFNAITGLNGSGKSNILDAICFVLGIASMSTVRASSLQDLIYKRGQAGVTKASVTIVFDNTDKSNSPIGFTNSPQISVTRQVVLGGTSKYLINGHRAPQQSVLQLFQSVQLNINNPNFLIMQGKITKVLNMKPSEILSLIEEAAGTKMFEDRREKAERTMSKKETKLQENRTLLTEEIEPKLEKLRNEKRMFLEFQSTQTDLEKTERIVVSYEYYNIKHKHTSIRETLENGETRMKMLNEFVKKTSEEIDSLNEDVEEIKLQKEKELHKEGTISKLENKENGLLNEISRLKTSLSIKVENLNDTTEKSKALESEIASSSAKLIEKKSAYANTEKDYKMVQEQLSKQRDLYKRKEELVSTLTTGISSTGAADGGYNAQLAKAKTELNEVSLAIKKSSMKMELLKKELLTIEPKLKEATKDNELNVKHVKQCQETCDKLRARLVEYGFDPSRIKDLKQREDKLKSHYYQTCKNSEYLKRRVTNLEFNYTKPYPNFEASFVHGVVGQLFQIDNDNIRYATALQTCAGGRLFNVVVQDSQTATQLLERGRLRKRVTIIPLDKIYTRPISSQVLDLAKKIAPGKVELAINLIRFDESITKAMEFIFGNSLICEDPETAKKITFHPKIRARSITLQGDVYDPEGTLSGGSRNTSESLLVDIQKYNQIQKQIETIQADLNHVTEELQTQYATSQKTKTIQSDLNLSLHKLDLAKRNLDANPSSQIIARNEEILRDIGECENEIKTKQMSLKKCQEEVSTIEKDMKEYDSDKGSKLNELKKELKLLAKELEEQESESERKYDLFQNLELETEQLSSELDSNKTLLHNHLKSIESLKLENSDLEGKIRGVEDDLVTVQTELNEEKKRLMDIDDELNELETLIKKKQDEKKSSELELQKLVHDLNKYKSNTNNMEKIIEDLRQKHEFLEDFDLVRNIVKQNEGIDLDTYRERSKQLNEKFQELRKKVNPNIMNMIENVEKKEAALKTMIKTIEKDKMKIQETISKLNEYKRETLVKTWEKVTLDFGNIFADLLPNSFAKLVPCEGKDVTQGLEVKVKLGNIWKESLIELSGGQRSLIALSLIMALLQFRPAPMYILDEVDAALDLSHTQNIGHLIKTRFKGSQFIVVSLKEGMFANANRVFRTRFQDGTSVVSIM


Columns and labels:
[1] = target: T1, GST-Sgo1 101–200 (S. cerevisiae); test: pull-down; GST-Sgo1 proteins (100 ug) on glutathione magnetic beads, rotated with yeast lysate 2 h at 4°C; eluates immunoblotted with anti-FLAG (Ycg1), anti-HA (Smc2), anti-MYC (Rts1); only the target purified
[2] = target: T2, GST-Sgo1 137–163 (S. cerevisiae); test: as above
[3] = target: T3, GST-Sgo1 1–163 (S. cerevisiae); test: as above
[4] = target: T4, GST-Sgo1 N51I (S. cerevisiae); test: as above
[5] = target: T5, GST-Sgo1wt (full length Sgo1-GST) (S. cerevisiae); test: as above
[6] = target: T6, Smc2-TEV-HaloTag-TwinStrep (S. cerevisiae); test: pull-down; condensin purified from yeast lysate on StrepTactin Sepharose via TwinStrep-tagged Smc2, eluted with 2 mM biotin; Smc4-V5-His6 in the preparation detected with anti-V5

binding [1] | binding [2] | binding [3] | binding [4] | binding [5] | binding [6] | Binder
no binding | no binding | binds | binds | binds | – | Smc2-6HA (protein, UniProt P38989 1-1170) MKVEELIIDGFKSYATRTVITDWDPQFNAITGLNGSGKSNILDAICFVLGIASMSTVRASSLQDLIYKRGQAGVTKASVTIVFDNTDKSNSPIGFTNSPQISVTRQVVLGGTSKYLINGHRAPQQSVLQLFQSVQLNINNPNFLIMQGKITKVLNMKPSEILSLIEEAAGTKMFEDRREKAERTMSKKETKLQENRTLLTEEIEPKLEKLRNEKRMFLEFQSTQTDLEKTERIVVSYEYYNIKHKHTSIRETLENGETRMKMLNEFVKKTSEEIDSLNEDVEEIKLQKEKELHKEGTISKLENKENGLLNEISRLKTSLSIKVENLNDTTEKSKALESEIASSSAKLIEKKSAYANTEKDYKMVQEQLSKQRDLYKRKEELVSTLTTGISSTGAADGGYNAQLAKAKTELNEVSLAIKKSSMKMELLKKELLTIEPKLKEATKDNELNVKHVKQCQETCDKLRARLVEYGFDPSRIKDLKQREDKLKSHYYQTCKNSEYLKRRVTNLEFNYTKPYPNFEASFVHGVVGQLFQIDNDNIRYATALQTCAGGRLFNVVVQDSQTATQLLERGRLRKRVTIIPLDKIYTRPISSQVLDLAKKIAPGKVELAINLIRFDESITKAMEFIFGNSLICEDPETAKKITFHPKIRARSITLQGDVYDPEGTLSGGSRNTSESLLVDIQKYNQIQKQIETIQADLNHVTEELQTQYATSQKTKTIQSDLNLSLHKLDLAKRNLDANPSSQIIARNEEILRDIGECENEIKTKQMSLKKCQEEVSTIEKDMKEYDSDKGSKLNELKKELKLLAKELEEQESESERKYDLFQNLELETEQLSSELDSNKTLLHNHLKSIESLKLENSDLEGKIRGVEDDLVTVQTELNEEKKRLMDIDDELNELETLIKKKQDEKKSSELELQKLVHDLNKYKSNTNNMEKIIEDLRQKHEFLEDFDLVRNIVKQNEGIDLDTYRERSKQLNEKFQELRKKVNPNIMNMIENVEKKEAALKTMIKTIEKDKMKIQETISKLNEYKRETLVKTWEKVTLDFGNIFADLLPNSFAKLVPCEGKDVTQGLEVKVKLGNIWKESLIELSGGQRSLIALSLIMALLQFRPAPMYILDEVDAALDLSHTQNIGHLIKTRFKGSQFIVVSLKEGMFANANRVFRTRFQDGTSVVSIM
– | – | – | – | – | binds | Smc4-V5-His6 (protein, UniProt Q12267 1-1418) MSDSPLSKRQKRKSAQEPELSLDQGDAEEDSQVENRVNLSENTPEPDLPALEASYSKSYTPRKLVLSSGENRYAFSQPTNSTTTSLHVPNLQPPKTSSRGRDHKSYSQSPPRSPGRSPTRRLELLQLSPVKNSRVELQKIYDRHQSSSKQQSRLFINELVLENFKSYAGKQVVGPFHTSFSAVVGPNGSGKSNVIDSMLFVFGFRANKMRQDRLSDLIHKSEAFPSLQSCSVAVHFQYVIDESSGTSRIDEEKPGLIITRKAFKNNSSKYYINEKESSYTEVTKLLKNEGIDLDHKRFLILQGEVENIAQMKPKAEKESDDGLLEYLEDIIGTANYKPLIEERMGQIENLNEVCLEKENRFEIVDREKNSLESGKETALEFLEKEKQLTLLRSKLFQFKLLQSNSKLASTLEKISSSNKDLEDEKMKFQESLKKVDEIKAQRKEIKDRISSCSSKEKTLVLERRELEGTRVSLEERTKNLVSKMEKAEKTLKSTKHSISEAENMLEELRGQQTEHETEIKDLTQLLEKERSILDDIKLSLKDKTKNISAEIIRHEKELEPWDLQLQEKESQIQLAESELSLLEETQAKLKKNVETLEEKILAKKTHKQELQDLILDLKKKLNSLKDERSQGEKNFTSAHLKLKEMQKVLNAHRQRAMEARSSLSKAQNKSKVLTALSRLQKSGRINGFHGRLGDLGVIDDSFDVAISTACPRLDDVVVDTVECAQHCIDYLRKNKLGYARFILLDRLRQFNLQPISTPENVPRLFDLVKPKNPKFSNAFYSVLRDTLVAQNLKQANNVAYGKKRFRVVTVDGKLIDISGTMSGGGNHVAKGLMKLGTNQSDKVDDYTPEEVDKIERELSERENNFRVASDTVHEMEEELKKLRDHEPDLESQISKAEMEADSLASELTLAEQQVKEAEMAYVKAVSDKAQLNVVMKNLERLRGEYNDLQSETKTKKEKIKGLQDEIMKIGGIKLQMQNSKVESVCQKLDILVAKLKKVKSASKKSGGDVVKFQKLLQNSERDVELSSDELKVIEEQLKHTKLALAENDTNMNETLNLKVELKEQSEQLKEQMEDMEESINEFKSIEIEMKNKLEKLNSLLTYIKSEITQQEKGLNELSIRDVTHTLGMLDDNKMDSVKEDVKNNQELDQEYRSCETQDESEIKDAETSCDNYHPMNIDETSDEVSRGIPRLSEDELRELDVELIESKINELSYYVEETNVDIGVLEEYARRLAEFKRRKLDLNNAVQKRDEVKEQLGILKKKRFDEFMAGFNIISMTLKEMYQMITMGGNAELELVDSLDPFSEGVTFSVMPPKKSWRNITNLSGGEKTLSSLALVFALHKYKPTPLYVMDEIDAALDFRNVSIVANYIKERTKNAQFIVISLRNNMFELAQQLVGVYKRDNRTKSTTIKNIDILNRT
